US20120148607A1
These are yes or no findings as the source states them, for the method shown. Some binding calls cover weakened binding; strength is not graded here.

By UniProt entry, the sequences of proteins in these tests, tags left out. Where a name states a change or a piece, a line headed by the entry shows the natural chain unless it says otherwise. Residues count along the entry.
UniProt P16056, residues 25-929: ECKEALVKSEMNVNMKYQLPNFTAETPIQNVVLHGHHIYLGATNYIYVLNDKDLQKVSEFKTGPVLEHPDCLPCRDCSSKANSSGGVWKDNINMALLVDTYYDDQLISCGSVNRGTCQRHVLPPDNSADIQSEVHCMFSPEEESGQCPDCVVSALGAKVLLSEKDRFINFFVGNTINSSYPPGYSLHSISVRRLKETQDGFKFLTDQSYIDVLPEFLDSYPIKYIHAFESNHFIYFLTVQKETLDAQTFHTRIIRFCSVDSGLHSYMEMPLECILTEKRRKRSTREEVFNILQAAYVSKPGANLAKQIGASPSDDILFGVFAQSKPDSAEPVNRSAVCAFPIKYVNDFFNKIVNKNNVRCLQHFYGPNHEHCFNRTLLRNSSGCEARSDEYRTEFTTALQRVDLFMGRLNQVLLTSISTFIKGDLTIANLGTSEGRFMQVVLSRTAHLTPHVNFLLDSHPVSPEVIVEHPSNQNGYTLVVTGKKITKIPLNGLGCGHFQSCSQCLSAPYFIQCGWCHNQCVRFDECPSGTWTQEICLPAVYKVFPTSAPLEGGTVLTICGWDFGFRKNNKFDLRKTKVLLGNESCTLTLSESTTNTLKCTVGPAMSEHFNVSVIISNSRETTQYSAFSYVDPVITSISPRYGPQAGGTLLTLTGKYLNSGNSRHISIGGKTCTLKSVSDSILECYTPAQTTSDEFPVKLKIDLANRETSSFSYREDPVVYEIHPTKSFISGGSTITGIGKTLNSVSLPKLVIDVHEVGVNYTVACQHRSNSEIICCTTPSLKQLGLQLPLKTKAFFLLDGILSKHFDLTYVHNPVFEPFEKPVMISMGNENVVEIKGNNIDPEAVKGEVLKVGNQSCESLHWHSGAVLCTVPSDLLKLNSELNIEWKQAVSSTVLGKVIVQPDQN
UniProt P08581: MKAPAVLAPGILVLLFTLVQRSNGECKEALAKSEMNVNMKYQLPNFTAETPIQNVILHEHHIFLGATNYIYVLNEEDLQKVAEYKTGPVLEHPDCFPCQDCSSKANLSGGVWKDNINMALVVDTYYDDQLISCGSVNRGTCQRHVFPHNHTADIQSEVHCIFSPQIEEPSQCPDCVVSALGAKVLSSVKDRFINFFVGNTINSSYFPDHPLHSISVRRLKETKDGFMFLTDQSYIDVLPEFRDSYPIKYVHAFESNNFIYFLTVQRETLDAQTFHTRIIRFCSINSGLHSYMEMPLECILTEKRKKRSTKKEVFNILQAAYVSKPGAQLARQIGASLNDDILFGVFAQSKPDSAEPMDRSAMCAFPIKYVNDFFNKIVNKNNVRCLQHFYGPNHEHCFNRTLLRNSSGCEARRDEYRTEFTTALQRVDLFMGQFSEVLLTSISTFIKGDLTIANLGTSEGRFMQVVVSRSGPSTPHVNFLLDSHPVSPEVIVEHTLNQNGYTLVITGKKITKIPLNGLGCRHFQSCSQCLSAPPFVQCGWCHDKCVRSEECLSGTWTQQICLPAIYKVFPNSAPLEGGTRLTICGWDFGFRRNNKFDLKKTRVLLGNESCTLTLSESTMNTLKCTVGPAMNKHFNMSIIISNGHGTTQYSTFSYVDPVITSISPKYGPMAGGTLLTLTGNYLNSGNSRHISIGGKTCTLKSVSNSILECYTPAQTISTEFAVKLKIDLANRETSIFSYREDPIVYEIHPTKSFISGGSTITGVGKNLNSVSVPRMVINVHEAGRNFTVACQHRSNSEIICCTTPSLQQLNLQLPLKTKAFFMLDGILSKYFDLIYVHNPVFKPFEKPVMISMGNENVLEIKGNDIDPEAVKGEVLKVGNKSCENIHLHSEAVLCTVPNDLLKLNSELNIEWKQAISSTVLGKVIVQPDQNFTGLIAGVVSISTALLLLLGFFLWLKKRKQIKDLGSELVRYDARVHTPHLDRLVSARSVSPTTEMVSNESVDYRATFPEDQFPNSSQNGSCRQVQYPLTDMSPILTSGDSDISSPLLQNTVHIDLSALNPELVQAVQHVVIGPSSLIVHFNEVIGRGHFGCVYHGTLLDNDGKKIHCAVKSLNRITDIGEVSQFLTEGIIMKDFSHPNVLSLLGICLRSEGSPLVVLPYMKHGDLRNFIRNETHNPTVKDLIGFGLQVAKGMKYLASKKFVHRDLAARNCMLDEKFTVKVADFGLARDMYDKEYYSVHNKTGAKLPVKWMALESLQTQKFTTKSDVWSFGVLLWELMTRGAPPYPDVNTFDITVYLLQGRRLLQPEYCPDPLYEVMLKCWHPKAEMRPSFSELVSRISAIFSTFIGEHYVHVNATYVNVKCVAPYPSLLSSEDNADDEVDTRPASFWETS
HMet (human c-Met of Table 16): residues 25-932 of P08581
c-Met SEMA-PSI-IPT1-2 ectodomain: residues 25-741 of P08581
c-Met SEMA-PSI ectodomain: residues 25-562 of P08581
c-Met SEMA ectodomain: residues 27-515 of P08581

What was measured:
[1] = target: mouse c-Met (R&D systems cat no: 527-ME) (mouse) (UniProt P16056); assay: ELISA, mAb (2 µg/ml) immobilised, mouse c-Met added, anti-His detection
[2] = target: c-Met SEMA-PSI-IPT1-2 ectodomain (human) (UniProt P08581); assay: ELISA of mAb on immobilised c-Met ectodomains
[3] = target: c-Met SEMA-PSI ectodomain (human) (UniProt P08581); assay: ELISA: c-Met ectodomain coated at 1 µg/ml on maxisorb plate; mAb in three-fold dilutions from 1 µg/ml, 1 h RT; HRP-conjugated Protein A, TMB, OD 450
[4] = target: c-Met SEMA ectodomain (human) (UniProt P08581); assay: as above
[5] = target: c-Met SEMA-PSI-IPT1-2 ectodomain (human) (UniProt P08581); assay: as above
[6] = target: HMet (human c-Met of Table 16) (human) (UniProt P08581); assay: SPR, 36C4 coupled on CM-5 chip (3000 RU), c-Met construct 10 µg/ml injected
[7] = target: c-Met SEMA ectodomain (human) (UniProt P08581); assay: ELISA of mAb on immobilised c-Met ectodomains

| Binder | binding [2] | binding [7] | binding [1] | other results |
| --- | --- | --- | --- | --- |
| 20A11 mAb (antibody, V domains shown) VH: QVQLVESGGGLVQPGGSLRLSCAASGFTFDDYAMSWVRQAPGKGLEWVSAISWNGSSTYYAESMKGRFTISRDNAKNTLYLQMNSLKSEDTAVYYCAKDLIGSHDYWGQGTQVTVSS VL: QAVLTQPPSVSGTLGKTLTISCAGTSSDVGYGNYVSWYQQLPGTAPKLLIYAVSTRASGIPDRFSGSKSGNTASLTISGLQSEDEADYYCASYRSSNNYAFGAGTKLTVL | – | – | no binding (tested: 100 ng/ml mouse c-Met) | – |
| 12G4 mAb (antibody, V domains shown) VH: QLQLVESGGGMAQPGGSLKLSCAASGFTFDDYAMTWVRQAPGKGLEWLSTISWNDINTYYAESMKDRFTISRDNAKNTLYLQMNSLESEDTAVYYCAKRRDNYYGTSGEYDYWGQGTQVTVSS VL: QSALTQPPSVSGTLGKTVTISCAGTSSDIGNYNYVSWYQQLPGTAPKLLIYEVNKRPSGIPDRFSGSKSGNTASLSISGLQSEDEADYYCASYRSSNNVVFGGGTKLTVL | binds | – | no binding (tested: 100 ng/ml mouse c-Met) | – |
| 13E6 mAb (antibody, V domains shown) VH: QVQLQESGGDLVQPGGSLRLSCAASGFTFDDYVMNWVRQAPGKGLEWISAINWNGGSTYYAESMKGRFTISRDNAKNTLYLQMYSLQSDDTAVYYCVKDTVVSGNGYWGQGTQVTVSS VL: QSVLTQPPSVSGTLGKTVTISCAGTSSDIGDYNYVSWYQQLPGTAPKLLIYDVNKRASGIPDRFSGSKSGNTASLSISGLQSEDEADYYCASYRSRNDYAFGGGTKLTVL | – | – | no binding (tested: 100 ng/ml mouse c-Met) | – |
| 20F1 mAb (antibody, V domains shown) VH: EVQVQESGPGLVKPSQTLSLTCTVSGGSMTGNYYAWSWIRQPPGKGLEWMGVIAYDGSTYYSPSLKSRTSISRDTSKNQFSLQLSSVSPEDTAVYYCARGPGWYSGSRNDYWGQGTQVTVSS VL: QSALTQPPSVSGSPGKTVTISCTGTNSDVGYGNYVSWYQQLPGMAPKLLIYDVNRRASGIADRFSGSKSGNTASLTISGLQSEDEGDYHCASYRSANNAVFGGGTHLFVL | – | binds | – | – |
| 34H7 mAb (antibody, V domains shown) VH: ELQLVESGGALVQPGGSLRLSCVESGFTFSSYAMSWVRQAPGKGLEWVSGIYKGGGPKYANSVKGRFTISRDNAKNTLYLQMNSLKPEDTAVYYCAKSGYGSSLGDFGSWGQGTQVTVSS VL: QAGLTQLSSMSGSPGQTVTITCTGSSSNIGGGYYLSWYQHLPGTAPKLLIYSNINRASGVPDRFSGSTSGISASLTITGLQAEDEADYYCSSWDDSVSGPVFGGGTSLTVL | – | binds | – | – |

More lines, main results first:

| binding [2] | binding [7] | Binder | binding [1] | other results |
| --- | --- | --- | --- | --- |
| binds | – | 38H10 mAb (antibody, V domains shown) VH: EVQLVQPGVELRNPGASVKVSCKASGYIFTMNSIDWVRQAPGQGLEWMGRIDPEDGGTKYAQKFQGRVTFTADTSTSTAYVELNSLRSEDTAVYYCARVDDYYLGYDYWGQGTQVTVSS VL: EIVMTQSPSSVTASAGEKVTINCKSSQSVLWRSNQKNYLAWYQQRLGQSPRLLISWASIRESGVPDRFSGSGSTTDFTLTISSFQPEDAAVYYCQQGYSFPYTFGSGTRLEIK | no binding (tested: 100 ng/ml mouse c-Met) | – |
| – | binds | 36C4 mAb (antibody, V domains shown) VH: QVQLVESGPGLVKPSQTLSLTCAVSGGSITTNYYYWSWIRQSPGKGLEWMGVIAYDGSTDYSPSLKSRTSISRDTSKNQFSLQLSSVTPEDTAVYYCARDVRVIATGWATANALDAWGQGTLVTVSS VL: QSVLTQPPSVSGSPGKTVTISCAGTSSDVGYGNYVSWYQQLPGTAPKLLIFAVSYRASGIPDRFSGSKSGNTAFLTISGLQSEDEADYYCASYRSSNNAAVFGGGTHLTVL | no binding (tested: 100 ng/ml mouse c-Met) | binding [3]: binds; binding [4]: binds; binding [5]: binds; binding [6]: binds |
| binds | – | 40B8 mAb (antibody, V domains shown) VH: EVQLVQPGAELRNPGASVKVSCKASGYTFTNYVIDWVRQAPGQGLEWMGRIDPENGGTRYAQKFQGRVTFTADTSTSTAYVELSNLRSEDTAVYYCARLEDYELAYDYWGQGTQVTVSS VL: DIVMTQTPSSVTASAGEKVTINCKSSQSVLLSSNQKNYLAWYQQRLGQSPRLLIYWASTRESGVPDRFSGSGSTTDFTLTISSFQPEDAAVYYCQQGVSFPLTFGQGTKVELK | no binding (tested: 100 ng/ml mouse c-Met) | binding [5]: binds |
